# Measurements reported in the supplement of paper PMC12217912.
# The other results are listed elsewhere or left out. Sequences were assembled here from the parent chain. Values near 0.05 are background.
# B1: TEV protease; numbered along this chain (parent)
# chain: MGESLFKGPRDYNPISSSICHLTNESDGHTTSLYGIGFGPFIITNKHLFRRNNGTLVVQSLHGVFKVKDTTTLQQHLVDGRDMIIIRMPKDFPPFPQKLKFREPQREERICLVTTNFQTKSMSSMVSDTSCTFPSGDGIFWKHWIQTKDGQCGSPLVSTRDGFIVGIHSASNFTNTNNYFTSVPKNFMELLTNQEAQQWVSGWRLNADSVLWGGHKVFMVKPEEPFQPVKEATQL
# Variants of: B1
# Assay: raw area under fraction-flipped curve 0-4 h after induction (AUC4h, not background-subtracted), DNA-recorder readout of cleavage of the substrate (dimensionless); higher = more cleavage of the substrate by the protease variant
# Conditions: temperature: 34 °C; time window: 0-4 h after rhamnose induction
# Procedure: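 In vivo DNA recorder in E. coli TOP10(DE3) ΔrhaA at 34 °C. Each TEVp single-site mutant (parent TEVp 0) is paired with a single-site variant of the 7-mer TEVs (canonical ENLYFQ|S). The substrate sits between flexible linkers in a Bxb1-sfGFP-TEVs-SsrA fusion, so cleavage stabilises Bxb1 and speeds flipping of a recombination array, read by NGS. The value is the raw area under the fraction-flipped curve over 0-4 h after rhamnose induction (AUC4h), with ≥20 reads per time point. It is not background-subtracted; inactive controls average about 0.047.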
# 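Also: Bxb1 expression induced with 0.2% (w/v) L-rhamnose at OD600 near 0.5, cultures sampled hourly, flipped fraction per protease–substrate barcode pair counted by paired-end Illumina sequencing.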
Variant,area with substrate ECLYFQS,area with substrate EGLYFQS,area with substrate EHLYFQS,area with substrate EILYFQS,area with substrate EKLYFQS,area with substrate EPLYFQS,area with substrate EQLYFQS,area with substrate ESLYFQS,area with substrate ETLYFQS,area with substrate EDLYFQS,area with substrate EELYFQS,area with substrate ELLYFQS,area with substrate EMLYFQS,area with substrate ERLYFQS,area with substrate EVLYFQS,area with substrate EYLYFQS,area with substrate EFLYFQS,area with substrate EWLYFQS
MGESLFKGPRDYNPISSSICHLTNESDGHTTSLYGIGFGPFIITNKHLFRRNNGTLVVQSLHGVFKVKDTTTLQQHLVDGRDMIIIRMPKDFPPFPQKLKFREPQREERICLVTTNFQTKSMSSMVSVTSCTFPSGDGIFWKHWIQTKDGQCGSPLVSTRDGFIVGIHSASNFTNTNNYFTSVPKNFMELLTNQEAQQWVSGWRLNADSVLWGGHKVFMVKPEEPFQPVKEATQL [D128V],0.14,0.142,0.151,0.114,0.139,0.0709,0.138,0.123,0.124,,,,,,,,,
MGESLFKGPRDYNPISSSICHLTNESDGHTTSLYGIGFGPFIITNKHLFRRNNGTLVVQSLHGVFKVKDTTTLQQHLVDGRDMIIIRMPKDFPPFPQKLKFREPQREERICLVTTNFQTKSMSSMVSDTSCTFPSGDGIFWDHWIQTKDGQCGSPLVSTRDGFIVGIHSASNFTNTNNYFTSVPKNFMELLTNQEAQQWVSGWRLNADSVLWGGHKVFMVKPEEPFQPVKEATQL [K142D],0.0738,,0.0647,0.0681,0.0683,,0.0836,0.0742,,0.098,0.0604,0.0766,0.0625,0.102,0.0656,0.0693,,
MGESLFKGPRDYNPISSSICHLTNESDGHTTSLYGIGFGPFIITNKHLFRRNNGTLVVQSLHGVFKVKDTTTLQQHLVDGRDMIIIRMPKDFPPFPQKLKFREPQREERICLVTTNFQTKSMSSMVSDTSCTFPSGDGIFWRHWIQTKDGQCGSPLVSTRDGFIVGIHSASNFTNTNNYFTSVPKNFMELLTNQEAQQWVSGWRLNADSVLWGGHKVFMVKPEEPFQPVKEATQL [K142R],0.0667,0.0788,0.0872,,0.0767,,,0.079,,,,0.0768,0.0758,,,0.0836,0.115,0.0761
MGESLFKGPRDYNPISSSICHLTNESDGHTTSLYGIGFGPFIITNKHLFRRNNGTLVVQSLHGVFKVKDTTTLQQHLVDGRDMIIIRMPKDFPPFPQKLKFREPQREERICLVTTNFQTKSMSSMVSDTSCTFPSGDGIFRKHWIQTKDGQCGSPLVSTRDGFIVGIHSASNFTNTNNYFTSVPKNFMELLTNQEAQQWVSGWRLNADSVLWGGHKVFMVKPEEPFQPVKEATQL [W141R],0.0603,,0.0758,0.0571,,,0.0522,0.0688,0.0513,,,,0.0356,0.0618,0.0535,0.0864,,
MGESLFKGPRDYNPISSSICHLTNESDGHTTSLYGIGFGPFIITNKHLFRRNNGTLVVQSLHGVFKVKDTTTLQQHLVDGRDMIIIRMPKDFPPFPQKLKFREPQREERICLVTTNFQTKSMSSMVSDTSCTFPSGDGIFCKHWIQTKDGQCGSPLVSTRDGFIVGIHSASNFTNTNNYFTSVPKNFMELLTNQEAQQWVSGWRLNADSVLWGGHKVFMVKPEEPFQPVKEATQL [W141C],0.0678,,,0.0792,0.0523,0.0543,0.0762,0.0653,0.0628,,0.0767,0.0545,0.0954,0.0899,0.0543,,0.0655,0.0489
MGESLFKGPRDYNPISSSICHLTNESDGHTTSLYGIGFGPFIITNKHLFRRNNGTLVVQSLHGVFKVKDTTTLQQHLVDGRDMIIIRMPKDFPPFPQKLKFREPQREERICLVTTNFQTKSMSSMVSDTSCTFPVGDGIFWKHWIQTKDGQCGSPLVSTRDGFIVGIHSASNFTNTNNYFTSVPKNFMELLTNQEAQQWVSGWRLNADSVLWGGHKVFMVKPEEPFQPVKEATQL [S135V],0.083,0.0743,0.0674,0.0887,0.0594,,0.0743,,,0.0963,0.0927,0.075,0.0771,,0.0776,,0.106,0.0779
MGESLFKGPRDYNPISSSICHLTNESDGHTTSLYGIGFGPFIITNKHLFRRNNGTLVVQSLHGVFKVKDTTTLQQHLVDGRDMIIIRMPKDFPPFPQKLKFREPQREERICLVTTNFQTKSMSSMVSDTSCTFPGGDGIFWKHWIQTKDGQCGSPLVSTRDGFIVGIHSASNFTNTNNYFTSVPKNFMELLTNQEAQQWVSGWRLNADSVLWGGHKVFMVKPEEPFQPVKEATQL [S135G],0.0922,,0.101,0.07,0.0707,0.0877,0.0851,0.0809,,,0.104,0.0769,0.0633,0.0826,0.0696,0.0806,,
MGESLFKGPRDYNPISSSICHLTNESDGHTTSLYGIGFGPFIITNKHLFRRNNGTLVVQSLHGVFKVKDTTTLQQHLVDGRDMIIIRMPKDFPPFPQKLKFREPQREERICLVTTNFQTKSMSSMVSDTSCTFPSGDNIFWKHWIQTKDGQCGSPLVSTRDGFIVGIHSASNFTNTNNYFTSVPKNFMELLTNQEAQQWVSGWRLNADSVLWGGHKVFMVKPEEPFQPVKEATQL [G138N],0.0695,,,0.083,0.103,,,,0.0908,,0.101,0.1,0.116,0.0793,0.0824,,,
MGESLFKGPRDYNPISSSICHLTNESDGHTTSLYGIGFGPFIITNKHLFRRNNGTLVVQSLHGVFKVKDTTTLQQHLVDGRDMIIIRMPKDFPPFPQKLKFREPQREERICLVTTNFQTKSMSSMVSDCSCTFPSGDGIFWKHWIQTKDGQCGSPLVSTRDGFIVGIHSASNFTNTNNYFTSVPKNFMELLTNQEAQQWVSGWRLNADSVLWGGHKVFMVKPEEPFQPVKEATQL [T129C],0.0914,0.0819,,0.112,0.0787,0.142,0.117,0.0834,,,0.118,0.102,0.144,,,,,
MGESLFKGPRDYNPISSSICHLTNESDGHTTSLYGIGFGPFIITNKHLFRRNNGTLVVQSLHGVFKVKDTTTLQQHLVDGRDMIIIRMPKDFPPFPQKLKFREPQREERICLVTTNFQTKSMSSMVSDVSCTFPSGDGIFWKHWIQTKDGQCGSPLVSTRDGFIVGIHSASNFTNTNNYFTSVPKNFMELLTNQEAQQWVSGWRLNADSVLWGGHKVFMVKPEEPFQPVKEATQL [T129V],0.076,,0.11,0.0696,,0.0869,,0.0921,0.0936,0.0825,,0.0865,0.116,0.0684,0.0983,,,0.0877
MGESLFKGPRDYNPISSSICHLTNESDGHTTSLYGIGFGPFIITNKHLFRRNNGTLVVQSLHGVFKVKDTTTLQQHLVDGRDMIIIRMPKDFPPFPQKLKFREPQREERICLVTTNFQTKSMSSMVSDFSCTFPSGDGIFWKHWIQTKDGQCGSPLVSTRDGFIVGIHSASNFTNTNNYFTSVPKNFMELLTNQEAQQWVSGWRLNADSVLWGGHKVFMVKPEEPFQPVKEATQL [T129F],0.0744,0.0916,,0.0922,,,0.0992,,,,,0.0925,0.107,0.0802,,,,0.0559
MGESLFKGPRDYNPISSSICHLTNESDGHTTSLYGIGFGPFIITNKHLFRRNNGTLVVQSLHGVFKVKDTTTLQQHLVDGRDMIIIRMPKDFPPFPQKLKFREPQREERICLVTTNFQTKSMSSMVSDTSCQFPSGDGIFWKHWIQTKDGQCGSPLVSTRDGFIVGIHSASNFTNTNNYFTSVPKNFMELLTNQEAQQWVSGWRLNADSVLWGGHKVFMVKPEEPFQPVKEATQL [T132Q],0.083,,0.12,0.0581,0.0475,0.0957,,0.0814,,,0.0818,0.0807,,0.0632,0.0763,0.0961,0.0667,0.0802
MGESLFKGPRDYNPISSSICHLTNESDGHTTSLYGIGFGPFIITNKHLFRRNNGTLVVQSLHGVFKVKDTTTLQQHLVDGRDMIIIRMPKDFPPFPQKLKFREPQREERICLVTTNFQTKSMSSMVSDTICTFPSGDGIFWKHWIQTKDGQCGSPLVSTRDGFIVGIHSASNFTNTNNYFTSVPKNFMELLTNQEAQQWVSGWRLNADSVLWGGHKVFMVKPEEPFQPVKEATQL [S130I],0.103,,,0.0968,,,,0.0925,,,0.0978,0.0932,,,0.111,,,
MGESLFKGPRDYNPISSSICHLTNESDGHTTSLYGIGFGPFIITNKHLFRRNNGTLVVQSLHGVFKVKDTTTLQQHLVDGRDMIIIRMPKDFPPFPQKLKFREPQREERICLVTTNFQTKSMSSMVSDTDCTFPSGDGIFWKHWIQTKDGQCGSPLVSTRDGFIVGIHSASNFTNTNNYFTSVPKNFMELLTNQEAQQWVSGWRLNADSVLWGGHKVFMVKPEEPFQPVKEATQL [S130D],0.0906,0.0713,0.0769,,0.0988,0.118,0.128,,,,,,0.124,0.0728,0.0877,0.0914,,0.0845
MGESLFKGPRDYNPISSSICHLTNESDGHTTSLYGIGFGPFIITNKHLFRRNNGTLVVQSLHGVFKVKDTTTLQQHLVDGRDMIIIRMPKDFPPFPQKLKFREPQREERICLVTTNFQTKSMSSMVSDTPCTFPSGDGIFWKHWIQTKDGQCGSPLVSTRDGFIVGIHSASNFTNTNNYFTSVPKNFMELLTNQEAQQWVSGWRLNADSVLWGGHKVFMVKPEEPFQPVKEATQL [S130P],0.0536,,0.0792,0.0328,0.0504,,,0.0607,,,0.0714,0.0519,0.0568,,0.0659,0.0368,0.0811,
MGESLFKGPRDYNPISSSICHLTNESDGHTTSLYGIGFGPFIITNKHLFRRNNGTLVVQSLHGVFKVKDTTTLQQHLVDGRDMIIIRMPKDFPPFPQKLKFREPQREERICLVTTNFQTKSMSSMVSDTWCTFPSGDGIFWKHWIQTKDGQCGSPLVSTRDGFIVGIHSASNFTNTNNYFTSVPKNFMELLTNQEAQQWVSGWRLNADSVLWGGHKVFMVKPEEPFQPVKEATQL [S130W],0.0573,0.0713,0.0635,,0.0676,0.0799,,0.0807,0.0725,0.0811,0.0917,,0.139,0.0997,0.0804,0.0731,,
MGESLFKGPRDYNPISSSICHLTNESDGHTTSLYGIGFGPFIITNKHLFRRNNGTLVVQSLHGVFKVKDTTTLQQHLVDGRDMIIIRMPKDFPPFPQKLKFREPQREERICLVTTNFQTKSMSSMVSDTSCTFPSGDGWFWKHWIQTKDGQCGSPLVSTRDGFIVGIHSASNFTNTNNYFTSVPKNFMELLTNQEAQQWVSGWRLNADSVLWGGHKVFMVKPEEPFQPVKEATQL [I139W],0.0897,0.0844,0.0988,0.0926,0.112,,0.118,0.0997,0.106,0.124,,,0.0927,0.102,0.0893,0.0937,0.0909,0.085
MGESLFKGPRDYNPISSSICHLTNESDGHTTSLYGIGFGPFIITNKHLFRRNNGTLVVQSLHGVFKVKDTTTLQQHLVDGRDMIIIRMPKDFPPFPQKLKFREPQREERICLVTTNFQTKSMSSMVSDTSCTCPSGDGIFWKHWIQTKDGQCGSPLVSTRDGFIVGIHSASNFTNTNNYFTSVPKNFMELLTNQEAQQWVSGWRLNADSVLWGGHKVFMVKPEEPFQPVKEATQL [F133C],0.113,0.0977,,0.0943,0.0955,,0.142,,,0.117,0.103,,0.113,,0.0728,0.109,,0.089
MGESLFKGPRDYNPISSSICHLTNESDGHTTSLYGIGFGPFIITNKHLFRRNNGTLVVQSLHGVFKVKDTTTLQQHLVDGRDMIIIRMPKDFPPFPQKLKFREPQREERICLVTTNFQTKSMSSMVSDTSCTVPSGDGIFWKHWIQTKDGQCGSPLVSTRDGFIVGIHSASNFTNTNNYFTSVPKNFMELLTNQEAQQWVSGWRLNADSVLWGGHKVFMVKPEEPFQPVKEATQL [F133V],0.118,0.122,0.128,0.103,0.113,,0.141,0.122,,,0.12,0.113,0.114,0.155,,,,
